Assay [1] concerns the target T1, human OX40-Ig fusion protein (human, UniProt P43489 29-214).
T1 construct: extracellular domain; Bought (Alexis Biochemicals); not shown: CH2 and CH3 domains of human IgG1
T1 sequence (looked up): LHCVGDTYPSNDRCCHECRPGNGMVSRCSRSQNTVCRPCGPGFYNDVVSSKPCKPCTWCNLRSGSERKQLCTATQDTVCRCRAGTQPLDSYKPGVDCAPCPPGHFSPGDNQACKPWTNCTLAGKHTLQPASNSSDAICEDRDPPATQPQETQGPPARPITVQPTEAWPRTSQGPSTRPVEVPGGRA
The assay is described as follows: phage ELISA on coated human OX40-Ig, anti-M13 peroxidase, absorbance at 492 nm. Here is the method:
Selected phage antibodies that were obtained in the screen described above, were validated in ELISA for specificity. For this purpose, human OX40-Ig was coated to Maxisorp™ ELISA plates. After coating, the plates were blocked in 2% MPBS. The selected phage antibodies were incubated in an equal volume of 4% MPBS. The plates are emptied, washed once in PBS, after which the blocked phages were added. Incubation was allowed to proceed for 1 hour, the plates were washed in PBS containing 0.1% Tween-20 and bound phages were detected using an anti-M13 antibody conjugated to peroxidase. As a control, the procedure was performed simultaneously using a control phage antibody directed against thyroglobulin (De Kruif et al. 1995a and 1995b), which served as a negative control.
On the technique in general: In an ELISA, binding on a coated surface is turned into a signal by an enzyme label.

Assay [2] deals with T2, human OX40-receptor (human, UniProt P43489 29-277).
T2 construct: whole, on cells; also called CD134; ACT-4
T2 sequence (looked up): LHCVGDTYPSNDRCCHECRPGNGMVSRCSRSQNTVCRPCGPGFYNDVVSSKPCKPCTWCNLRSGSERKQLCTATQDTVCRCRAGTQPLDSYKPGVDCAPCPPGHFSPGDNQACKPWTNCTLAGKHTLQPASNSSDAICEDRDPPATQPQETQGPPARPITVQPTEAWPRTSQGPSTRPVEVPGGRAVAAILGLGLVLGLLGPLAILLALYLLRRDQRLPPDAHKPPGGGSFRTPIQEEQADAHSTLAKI
Briefly: flow cytometry, mix of OX40-receptor transfected (green, PKH67) and control transfected PER.C6 cells, M13 anti-phage PE. The procedure: In another assay the phage antibodies were analyzed for their ability to bind PER.C6™ cells that recombinantly express human OX40-receptor. To this purpose PER.C6™ cells were transfected with a plasmid carrying a cDNA sequence encoding human OX40-receptor or with the empty vector and stable transfectants were selected using standard techniques known to a person skilled in the art (Coligan et al., 2001). For flow cytometry analysis, phage antibodies were first blocked in an equal volume of 4% MPBS for 15 minutes at 4° C. prior to the staining of the OX40-receptor- and control transfected PER.C6™ cells. The blocked phages were added to a mixture of unlabelled control transfected PER.C6™ cells and OX40-receptor transfected PER.C6™ cells that were labelled green using a lipophylic dye (PKH67, Sigma). The binding of the phage antibodies to the cells was visualized using a biotinylated anti-M13 antibody (Santa Cruz Biotechnology) followed by streptavidin-phycoerythrin (Caltag).
Background: In flow cytometry, cells or beads pass a laser one at a time.

Assay [3] concerns the target T2, human OX40-receptor. Briefly: flow cytometry on synovial fluid mononuclear cells, M13 anti-phage APC against CD4 PE. The procedure: In another assay the phage antibodies were analyzed for their ability to bind to OX40-receptor positive CD4+ T-cells derived from inflamed tonsils or from synovial fluid from patients suffering from rheumatoid arthritis. As a control, the staining pattern of the anti OX40-receptor phage antibodies on peripheral blood mononuclear cells (MNC) is also shown.
Inflamed tonsils were obtained from patients undergoing routine tonsillectomy. Tonsils were minced and the MNC fraction was isolated by density centrifugation. Flow cytometric analysis of the binding of the anti-OX40-receptor phage antibodies to the OX40+ CD4+ T-cells was performed as described above. The CD4+ T-cells were distinguished from total tonsil MNC using a FITC conjugated antibody against CD4. As shown in FIGS. 3A and 3B the selected anti-human OX40-receptor phage antibodies called SC02008, SC02009, SC02010, SC02011, SC02012 and SC02021 selectively stain a subset of CD4+ T-cells within tonsil and synovial fluid mononuclear cells respectively, while they display minor staining of peripheral blood CD4+ T-cells (FIG. 3C).

B1: phage antibody SC02021 (scFv) (scFv)
scFv: MAEVQLVESGGGLVQPRGSLRLSCAASGFTFSSYAMNWVRQAPGKGLEWVAVISYDGSNKYYADSVKGRFTISRDNSKNTLYLQMNSLRAEDTAVYYCAKDRYITLPNALDYWGQGTLVTVLEGTGGSGGTGSGTGTSEL[here about 100 residues without letters]YCQQYKSNPPTFGQGTKVEIKRAA
On to B1, for which the binding result in assay [1] and in assay [2] was “binds” each time.

B2: phage antibody SC02010 (scFv) (scFv)
scFv: MAEVQLVESGGGLIQPGGSLRLSCAASGFTFSGYPMNWVRQAPGKGLEWVAVISYDGSNKYYADSVKGRFTISRDNSKNTLYLQMNSLRAEDTAVYYCARDMSGFHEFDYWGQGTLVTVLEGTGGSGGTGSGTGTSELTQSPSSLSASVGDRVTIT[here about 80 residues without letters]FGQGTKVEIKRAA
On to B2, for which the binding result in assay [1] and in assay [3] was “binds” throughout.

The values above are taken from patent US20060281072A1 (CRUCELL HOLLAND B V, published 2006).
